Reference: a compilation of properties of binary mixtures (doi:10.1007/s10953-005-9002-0)
The densities may have been worked out from excess volumes.

Assay: xn = mol fraction of the nth substance listed
Details: 298.15 K, 101 kPa

COS(=O)(=O)[O-].Cn1cc[n+](C)c1 + CCO
Details	mass density [kg/m3]
x2 = 0.1546	1303.2
x2 = 0.2577	1278.2
x2 = 0.3537	1249.3
x2 = 0.4987	1192.5
x2 = 0.5583	1172.9
x2 = 0.6463	1126.3
x2 = 0.7622	1041.9
x2 = 0.8475	975.9
x2 = 0.9489	865.8

CCCC[n+]1ccn(C)c1.COS(=O)(=O)[O-] + O
Details	mass density [kg/m3]
x2 = 0.0217	1208.8
x2 = 0.1385	1206.5
x2 = 0.4356	1197.9
x2 = 0.5428	1192.3
x2 = 0.7338	1172.8
x2 = 0.8577	1140.9
x2 = 0.9502	1079.4

CCCC[n+]1ccn(C)c1.COS(=O)(=O)[O-] + CCO
Details	mass density [kg/m3]
x2 = 0.1594	1193.5
x2 = 0.3597	1158.8
x2 = 0.4371	1141.8
x2 = 0.5412	1112.9
x2 = 0.6552	1071.6
x2 = 0.7651	1016.8
x2 = 0.8779	935.1
x2 = 0.9287	884.7

CCCC[n+]1ccn(C)c1.COS(=O)(=O)[O-] + CO
Details	mass density [kg/m3]
x2 = 0.0692	1202.9
x2 = 0.1777	1192.9
x2 = 0.2629	1182.6
x2 = 0.3668	1169.5
x2 = 0.4635	1153.2
x2 = 0.5662	1130.2
x2 = 0.6573	1102.5
x2 = 0.7654	1054.8
x2 = 0.845	1002.8

CCCC[n+]1ccn(C)c1.COS(=O)(=O)[O-] + CCCCCCO
Details	mass density [kg/m3]
x2 = 0.0286	1202
x2 = 0.1431	1172.5
x2 = 0.2515	1141.9
x2 = 0.3299	1117.9
x2 = 0.4374	1082.2
x2 = 0.5401	1044.5
x2 = 0.6387	1004.6
x2 = 0.7298	964
x2 = 0.8247	917.4

CCCC[n+]1ccn(C)c1.COS(=O)(=O)[O-] + CCCCO
Details	mass density [kg/m3]
x2 = 0.0378	1205.8
x2 = 0.1375	1186.4
x2 = 0.2365	1164.4
x2 = 0.3337	1139.9
x2 = 0.4397	1109.1
x2 = 0.5634	1066.3
x2 = 0.6359	1036.9
x2 = 0.7317	992.1
x2 = 0.8419	929.3

CCCCCCCCOS(=O)(=O)[O-].CCCC[n+]1ccn(C)c1 + CCCCO
Details	mass density [kg/m3]
x2 = 0.1676	1053.8
x2 = 0.2741	1042.8
x2 = 0.3377	1035.1
x2 = 0.4389	1020.8
x2 = 0.5712	997
x2 = 0.6553	977.5
x2 = 0.8803	893.5
x2 = 0.9202	870.2

CCCC[n+]1ccn(C)c1.COS(=O)(=O)[O-] + CCCCCCCCCCO
Details	mass density [kg/m3]
x2 = 0.0431	1196.6
x2 = 0.3357	1087.2
x2 = 0.4521	1043.1
x2 = 0.5434	1008
x2 = 0.8526	887.5
x2 = 0.9397	852.8

COS(=O)(=O)[O-].Cn1cc[n+](C)c1 + O
Details	mass density [kg/m3]
x2 = 0.0624	1326.3
x2 = 0.1604	1322.1
x2 = 0.2705	1316.1
x2 = 0.3586	1309.9
x2 = 0.4629	1300.4
x2 = 0.5766	1290.3
x2 = 0.6502	1272.5
x2 = 0.7723	1237.2
x2 = 0.9139	1114.3
x2 = 0.9376	1114.5
x2 = 0.9794	1044.3

CCCCCCCCOS(=O)(=O)[O-].CCCC[n+]1ccn(C)c1 + CCCCCCCCCCO
Details	mass density [kg/m3]
x2 = 0.2496	1025.9
x2 = 0.3414	1008.3
x2 = 0.4568	984.6
x2 = 0.665	936.5
x2 = 0.7454	915.2
x2 = 0.9373	852.6

CCCC[n+]1ccn(C)c1.COS(=O)(=O)[O-] + CCCCCCCCO
Details	mass density [kg/m3]
x2 = 0.0395	1200.1
x2 = 0.1421	1167.5
x2 = 0.2358	1136.4
x2 = 0.3345	1102
x2 = 0.4344	1065.9
x2 = 0.5442	1024
x2 = 0.6461	983.2
x2 = 0.7249	950.2
x2 = 0.9227	861.9

CCCCCCCCOS(=O)(=O)[O-].CCCC[n+]1ccn(C)c1 + CCCCCCCCO
Details	mass density [kg/m3]
x2 = 0.0492	1063.6
x2 = 0.1546	1048.2
x2 = 0.2584	1031.9
x2 = 0.4542	996.1
x2 = 0.5476	976.2

COS(=O)(=O)[O-].Cn1cc[n+](C)c1 + CO
Details	mass density [kg/m3]
x2 = 0.0802	1318.3
x2 = 0.1837	1302
x2 = 0.2935	1282.5
x2 = 0.5031	1229.3
x2 = 0.593	1197.8
x2 = 0.6949	1148.9
x2 = 0.8712	1005.1
x2 = 0.934	919.8

COS(=O)(=O)[O-].Cn1cc[n+](C)c1 + CCCCO
Details	mass density [kg/m3]
x2 = 0.0302	1325.3
x2 = 0.2341	1259.2
x2 = 0.3366	1218.2
x2 = 0.438	1174.2
x2 = 0.4897	1151.1
x2 = 0.5424	1122.8
x2 = 0.6551	1060.7
x2 = 0.7571	997.5
x2 = 0.8272	948.9
x2 = 0.9417	860.9

CCCCCCCCOS(=O)(=O)[O-].CCCC[n+]1ccn(C)c1 + CCCCCCO
Details	mass density [kg/m3]
x2 = 0.2503	1038.8
x2 = 0.3348	1026.4
x2 = 0.4352	1009.5
x2 = 0.5425	988.4
x2 = 0.6343	966.9
x2 = 0.74	936.5
x2 = 0.9001	873.1

CCCCCCCCOS(=O)(=O)[O-].CCCC[n+]1ccn(C)c1 + CO
Details	mass density [kg/m3]
x1 = 0.0088	812.3
x2 = 0.092	1065.5
x2 = 0.2588	1059.3
x2 = 0.3544	1054.3
x2 = 0.4665	1045.9
x2 = 0.5963	1032.1
x2 = 0.6915	1015.7
x2 = 0.8971	933.4
